# In PubChem BioAssay AID504333 (National Center for Advancing Translational Sciences (NCATS), 2011):
# Out of some 360,000 compounds screened, about 16,000 (4.4%) were called active. This list was built around the results that the source calls inconclusive (neither active nor inactive); the mix of calls is not that of the screen. Calls come from the whole dose curve; as a rule, active = well fitted inhibition curve with a large enough effect; inconclusive = small, poorly fitted or top-dose-only effect; inactive = no such curve, though single readings can be large or run the other way. Where the call is inconclusive, the potency comes from a doubtful curve fit.
# Target: Bromodomain adjacent to zinc finger domain protein 2B (Homo sapiens) (UniProt Q9UIF8)
# Experiment: qHTS Assay for Inhibitors of BAZ2B; note: nearly all actives have a fitted effect of over 60% in size
# Conditions: AlphaScreen BAZ2B-H3K14Ac peptide displacement; activity change, negative = inhibition: at 114 µM (top of the series)
# Procedure, shortened: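 AlphaScreen displacement: compounds (up to 110uM) incubated 30 min at room temperature with a preformed 50 nM BAZ2B/50 nM biotinylated H3K14Ac peptide complex in PBS pH 7.4 with Tween-20. Donor and acceptor beads at 10 ug/mL final added, 20 min light-protected before reading.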
# % is set by controls: 0 for no effect and ±100 for the full control effect; potency is the fitted concentration of half-maximal effect; tags give direction and shape of the fitted curve.
# Chain of UniProt Q9UIF8 (Q9UIF8 whole entry, looked up, the tested form may be a part): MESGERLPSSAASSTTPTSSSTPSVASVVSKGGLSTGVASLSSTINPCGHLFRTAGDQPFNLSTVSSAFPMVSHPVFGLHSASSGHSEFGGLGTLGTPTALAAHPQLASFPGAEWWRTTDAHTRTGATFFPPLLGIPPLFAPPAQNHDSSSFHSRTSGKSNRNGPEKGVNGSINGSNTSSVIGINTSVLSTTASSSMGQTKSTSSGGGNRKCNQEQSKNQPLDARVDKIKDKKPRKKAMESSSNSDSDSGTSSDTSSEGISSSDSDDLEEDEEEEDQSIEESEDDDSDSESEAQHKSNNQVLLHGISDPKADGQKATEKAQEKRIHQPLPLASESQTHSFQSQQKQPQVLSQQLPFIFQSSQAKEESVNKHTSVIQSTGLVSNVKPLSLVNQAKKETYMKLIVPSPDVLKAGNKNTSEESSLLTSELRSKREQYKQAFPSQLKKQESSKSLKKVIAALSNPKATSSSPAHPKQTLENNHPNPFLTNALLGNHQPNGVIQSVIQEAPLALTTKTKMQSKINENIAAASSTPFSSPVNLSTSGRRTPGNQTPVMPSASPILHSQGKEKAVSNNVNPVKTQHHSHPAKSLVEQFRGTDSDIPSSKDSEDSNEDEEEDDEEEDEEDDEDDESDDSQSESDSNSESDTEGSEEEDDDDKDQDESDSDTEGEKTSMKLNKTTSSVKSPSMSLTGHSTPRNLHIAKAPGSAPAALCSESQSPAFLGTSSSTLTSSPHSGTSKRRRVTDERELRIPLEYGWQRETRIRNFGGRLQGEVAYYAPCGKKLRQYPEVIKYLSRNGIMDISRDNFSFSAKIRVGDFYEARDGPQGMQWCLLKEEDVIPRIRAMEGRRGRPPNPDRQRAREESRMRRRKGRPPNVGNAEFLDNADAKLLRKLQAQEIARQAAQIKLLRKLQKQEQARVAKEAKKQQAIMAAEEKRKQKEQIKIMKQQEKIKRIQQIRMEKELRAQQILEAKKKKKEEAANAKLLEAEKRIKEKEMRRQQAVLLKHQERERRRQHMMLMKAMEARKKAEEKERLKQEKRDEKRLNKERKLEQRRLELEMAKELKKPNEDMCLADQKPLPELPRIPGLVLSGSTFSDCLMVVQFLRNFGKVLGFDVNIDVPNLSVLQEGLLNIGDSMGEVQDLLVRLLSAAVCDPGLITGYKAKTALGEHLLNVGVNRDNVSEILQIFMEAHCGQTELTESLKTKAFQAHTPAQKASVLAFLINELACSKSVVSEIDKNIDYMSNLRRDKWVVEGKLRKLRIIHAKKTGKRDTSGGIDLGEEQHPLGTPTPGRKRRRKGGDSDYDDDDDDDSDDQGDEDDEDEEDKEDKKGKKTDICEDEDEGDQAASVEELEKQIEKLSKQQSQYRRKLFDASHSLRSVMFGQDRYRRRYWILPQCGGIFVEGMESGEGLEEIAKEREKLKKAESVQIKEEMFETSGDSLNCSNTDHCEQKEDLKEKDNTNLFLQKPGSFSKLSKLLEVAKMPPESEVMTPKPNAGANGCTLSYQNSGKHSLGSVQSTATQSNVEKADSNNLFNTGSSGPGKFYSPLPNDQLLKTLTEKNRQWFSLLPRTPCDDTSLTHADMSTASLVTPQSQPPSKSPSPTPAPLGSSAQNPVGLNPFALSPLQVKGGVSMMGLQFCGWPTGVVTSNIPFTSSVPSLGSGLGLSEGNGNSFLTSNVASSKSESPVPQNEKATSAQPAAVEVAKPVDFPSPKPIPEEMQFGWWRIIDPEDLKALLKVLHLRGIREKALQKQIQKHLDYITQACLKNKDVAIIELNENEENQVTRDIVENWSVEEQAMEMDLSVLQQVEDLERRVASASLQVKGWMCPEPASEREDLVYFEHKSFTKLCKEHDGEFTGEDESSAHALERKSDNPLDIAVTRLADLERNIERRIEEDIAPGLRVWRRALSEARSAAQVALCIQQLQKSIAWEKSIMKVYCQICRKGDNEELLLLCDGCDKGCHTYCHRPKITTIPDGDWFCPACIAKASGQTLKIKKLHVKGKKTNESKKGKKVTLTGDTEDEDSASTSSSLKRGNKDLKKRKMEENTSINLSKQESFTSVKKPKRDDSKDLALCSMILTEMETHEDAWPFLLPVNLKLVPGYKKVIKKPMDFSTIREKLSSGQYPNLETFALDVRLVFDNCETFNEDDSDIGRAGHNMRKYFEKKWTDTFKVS
SMILES,Potency,"activity change, negative = inhibition"
CCC1=Nc2cc(C(=O)NCc3ccco3)ccc2Sc2ccccc21,"inconclusive: 35.5 µM [inhibitor, partial curve]",–
N=C1S/C(=C\c2ccccc2F)C(=O)N1c1ccc(F)cc1,–,inactive: 4.17%
Cc1ccc(/C=N/NC(=O)CSc2nc3ccccc3n2Cc2ccccc2)o1,"inconclusive: 39.8 µM [inhibitor, full curve]",–
COC(=O)c1sccc1S(=O)(=O)N1CCN(c2ccccc2OC)CC1,–,inactive: -2.29%
COc1ccc(OC)c(CCNC(=O)CC2(CC3=NS(=O)(=O)c4ccccc4N3)CCCC2)c1,"inconclusive: 100 µM [inhibitor, single point]",–
Cc1ccc(-c2cc(C(=O)O)c3cc(Br)ccc3n2)s1,"inconclusive: 89.1 µM [inhibitor, single point]",–
CC(=O)C1=C(O)C(=O)N(c2ccc(S(N)(=O)=O)cc2)C1c1ccc([N+](=O)[O-])cc1 (centres undefined),"inconclusive: 89.1 µM [inhibitor, single point]",–
COc1ccc(/C=C/C(=O)c2ccc(C)c([N+](=O)[O-])c2)cc1O,"inconclusive: 44.7 µM [inhibitor, partial curve]",–
CCOc1ccc(Nc2nc(NCC3CCCO3)c3ccccc3n2)cc1 (centres undefined),active: 31.6 µM,–
Cc1ccc(CNC(=O)c2nnc(Cc3cccc(F)c3)o2)cc1,–,inactive: 104%
CC(C)c1ccc(S(=O)(=O)c2cnc(SCC(=O)Nc3cccc(C(F)(F)F)c3)nc2N)cc1,–,inactive: -1.18%
CC(C)c1cc(C(=O)N/N=C/c2ccoc2)cs1,"inconclusive: 39.8 µM [inhibitor, partial curve]",–
Oc1ccc(N=Nc2ccccc2-c2nn[nH]n2)c(O)c1,active: 50.1 µM,–
COC(=O)C(=C/C=C/c1ccco1)C(=O)OC,–,inactive: -23.7%
COc1cc(=O)[nH]c(SC(C)C(=O)Nc2nc3c(s2)CCCC3)n1 (centres undefined),–,inactive: -3.85%
CCN(C(=O)COC(=O)c1ccc2[nH]c3c(c2c1)CCCC3)C1CCS(=O)(=O)C1 (centres undefined),"inconclusive: 50.1 µM [inhibitor, partial curve]",–
CC(=O)NC12CC3CC(C1)CC(C(=O)OCC(=O)Nc1ncc(Cl)cc1Cl)(C3)C2,"inconclusive: 89.1 µM [inhibitor, single point]",–
Cc1cc2c3c(c1)C(C)(c1ccccc1)CC(C)(C)N3C(=O)C21C(C#N)=C(N)OC2=C1C(=O)CC(C)(C)C2 (centres undefined),"inconclusive: 89.1 µM [inhibitor, single point]",–
Cc1ccc(C)c(NC(=S)NNC(=S)Nc2ccc(C(C)C)cc2)c1,"inconclusive: 44.7 µM [inhibitor, partial curve, poor fit]",–
Cc1ccc(CCNCc2c(C(=O)O)c(C)n(-c3ccccc3)c2C)cc1,"inconclusive: 79.4 µM [inhibitor, single point]",–
O=C(CSc1ncnc2sc3c(c12)CCCCC3)NCc1ccco1,"inconclusive: 70.8 µM [inhibitor, single point]",–
CCn1cc(S(=O)(=O)CC(=O)Nc2ccc3c(c2)OCCO3)c2ccccc21,"inconclusive: 70.8 µM [inhibitor, single point]",–
O=C(Cc1ccccc1)n1nc(-c2ccccc2)nc1NCc1ccco1,–,inactive: 11.8%
CN(CC(=O)Nc1ccc(Cl)c(C(F)(F)F)c1)C(=O)Cc1cccs1,–,inactive: -2.79%
COc1ccccc1NC(=O)Cn1c(=O)n(-c2ccc(C)cc2)c(=O)c2ccc(C(=O)NCc3ccco3)cc21,–,inactive: -11.9%

SMILES,Potency,"activity change, negative = inhibition"
Cc1ccc(N(CC(=O)NC2CC2)S(=O)(=O)c2ccccc2)c(C)c1,–,inactive: -0.752%
Cc1c(NC(=O)c2ccc(Cl)cc2)cc(C(C)C)c(O)c1S(=O)(=O)c1ccc(Cl)cc1,–,inactive: -8.91%
CC(=O)N/N=C/c1c(C)[nH]n(-c2ccccc2)c1=O,active: 79.4 µM,–
O=C1N=C(c2ccccc2)S/C1=C\c1cccs1,"inconclusive: 70.8 µM [inhibitor, single point]",–
Cc1ccc(Nc2c(-c3cc(Br)ccc3F)nc3cc(C)ccn23)cc1,"inconclusive: 5.62 µM [inhibitor, full curve]",–
COc1ccc(CC(=O)NNC(=O)c2cccnc2)cc1OC,"inconclusive: 100 µM [inhibitor, partial curve]",–
Cc1c(N=Nc2c(-c3ccc([N+](=O)[O-])cc3)[nH]n(C(N)=S)c2=O)cccc1[N+](=O)[O-],"inconclusive: 8.91 µM [inhibitor, full curve, poor fit]",–
C=CCn1c(SCC(=O)c2ccc(O)c(O)c2)nnc1-c1cccc(OC)c1,active: 50.1 µM,–
Cc1cc(C)c2oc(C(=O)Nc3sc4c(c3C(=O)NCc3ccco3)CCCC4)cc(=O)c2c1,–,inactive: -2.57%
Cc1ccc(C(C)C)c(OCCN(C)C)c1,active: 35.5 µM,–
COc1ccccc1/C=C/C(=O)OCC(=O)Nc1cc(C(F)(F)F)ccc1N1CCOCC1,–,inactive: 0.91%
COc1ccc(N2CCN(CCCNC(=O)C3(S(=O)(=O)c4ccc(Cl)cc4)CC3)CC2)cc1,"inconclusive: 28.2 µM [inhibitor, full curve]",–
O=C(c1ccc([N+](=O)[O-])cc1[N+](=O)[O-])N1CCc2ccccc21,"inconclusive: 56.2 µM [inhibitor, partial curve, poor fit]",–
CCc1cccc(NC(=O)CCc2c(C)nc3c(c2C)c(=O)n(C)c(=O)n3C)c1,–,inactive: -5.2%
C=CCN(CC=C)C(=O)c1ccc(OC2CCN(C(C)=O)CC2)c(OC)c1,–,inactive: -14.6%
Oc1ccc(Br)cc1/C=N/n1c(COc2ccccc2)n[nH]c1=S,–,inactive: -9.42%
OC(CNCCC1C=Nc2ccccc21)Cn1c2ccc(Cl)cc2c2cc(Cl)ccc21 (centres undefined),active: 39.8 µM,–
C/C(CC(=O)Nc1ccc(N(C)C)cc1)=N\NC(=O)c1ccc([N+](=O)[O-])cc1Cl,"inconclusive: 44.7 µM [inhibitor, partial curve]",–
O=C(c1ccco1)N1N=C(c2cccs2)CC1c1ccc(F)cc1 (centres undefined),–,inactive: -3.01%
Cc1ccc(/C=C/C(=O)c2nc3ccccc3[nH]2)cc1,–,inactive: 0.952% [at 57.1 µM]
CC(C)c1nnc(NC(=O)CC(C)c2ccccc2)s1 (centres undefined),"inconclusive: 89.1 µM [inhibitor, single point]",–
Cc1cc(-n2cnnn2)cc(C)c1S(=O)(=O)N(C)c1ccccc1,–,inactive: -2.69%
O=C(c1ccccc1)c1nc[nH]c1C(=O)Nc1ccccn1,"inconclusive: 89.1 µM [inhibitor, single point]",–
C=CCc1cc(Cl)ccc1OCCn1ccnc1,active: 50.1 µM,–
Cc1ccccc1OCc1nc(-c2ccccc2)no1,–,inactive: 224%

SMILES,Potency,"activity change, negative = inhibition"
CCOC(=O)c1csc(N)c1-c1ccc([N+](=O)[O-])cc1,"inconclusive: 44.7 µM [inhibitor, partial curve]",–
Nc1ccccc1SCCS(=O)(=O)c1ccc(Cl)cc1,–,inactive: -17.1%
Cc1ccc(CNC(=O)Nc2ccc(OC(F)(F)F)cc2)n1C,"inconclusive: 79.4 µM [inhibitor, single point]",–
COc1ccc(NC(=S)Nc2cnc3ccccc3c2)c(OC)c1,"inconclusive: 79.4 µM [inhibitor, single point]",–
Cc1sc(NC(=O)c2ccco2)c(C(c2ccncc2)N2CCOCC2)c1C (centres undefined),"inconclusive: 50.1 µM [inhibitor, partial curve]",–
COc1cc(OC)c(C2Nc3ccccc3-c3nnc(SCc4ccccc4)nc3O2)cc1OC (centres undefined),–,inactive: -4.38%
COc1ccc(OC)c(C2N=C(N)Nc3nc4ccccc4n32)c1 (centres undefined),–,inactive: -15%
Cn1c(=O)c2c(nc(NCc3ccccc3)n2CCCc2ccccc2)n(C)c1=O,"inconclusive: 39.8 µM [inhibitor, full curve, poor fit]",–
CN(C)c1ccc(C2Nc3cccc4cccc(c34)N2)cc1,"inconclusive: 79.4 µM [inhibitor, single point]",–
CCc1cc2c(cc3c(=O)n(CC(=O)NCCc4ccc(OC)c(OC)c4)ncn32)s1,"inconclusive: 79.4 µM [inhibitor, single point]",–
Nn1cnnc1N/N=C/c1ccc(Cl)cc1Cl,"inconclusive: 79.4 µM [inhibitor, single point]",–
COc1ccc(Cc2n[nH]c(=S)o2)cc1,–,inactive: -3.53%
Cc1ccccc1Cn1c(=O)n(CCc2ccccc2)c(=O)c2c(C)c(C)sc21,–,inactive: -2.23%
CCc1ccc(S(=O)(=O)N2CCN(c3ccccc3OC)CC2)cc1,"inconclusive: 89.1 µM [inhibitor, single point]",–
Cc1cc(C(=O)COC(=O)c2ccc(O)cc2)c(C)n1CC1COc2ccccc2O1 (centres undefined),"inconclusive: 50.1 µM [inhibitor, partial curve]",–
CCOC(=O)c1c(CN2CCN(C)CC2)oc2ccc(O)cc12,"inconclusive: 79.4 µM [inhibitor, single point]",–
CCOc1ccc(Br)cc1S(=O)(=O)NCCN(C)C,"inconclusive: 100 µM [inhibitor, single point]",–
CCc1cccc(C)c1NC(=O)CSc1nc(C)cc(C)c1C(=O)Nc1ccccc1,–,inactive: 0.0123%
COc1ccc(O)c(CN2CCN(CCCc3ccccc3)C(CCO)C2)c1 (centres undefined),"inconclusive: 56.2 µM [inhibitor, partial curve]",–
Cc1ccc(C(=O)O)cc1-c1ccc(C=C2C(=O)c3ccccc3C2=O)o1,active: 50.1 µM,–
CCC1CN(C(=O)N2CCC(C(=O)NCCN(CC)CC)CC2)c2ccccc2O1 (centres undefined),"inconclusive: 79.4 µM [inhibitor, single point]",–
CCc1ccc(-c2nc(CN3CCCC(C(=O)N4CCN(c5cc(Cl)ccc5C)CC4)C3)c(C)o2)cc1 (centres undefined),active: 10 µM,–
O=[N+]([O-])c1cccc(CNc2ccc3c(c2)CCC3)c1,active: 20 µM,–
COc1ccc(Cl)cc1NC(=O)CN(C)S(=O)(=O)c1ccc2c(c1)CCCN2C(C)=O,–,inactive: 2.98%
